Data as given in the supplement of paper PMC7826260.
The other results are listed elsewhere or left out. Each Rep nickase domain was tested in vitro on the same pool of single strands (3 µM enzyme, 1 h, 37 °C); shown is the middle of each 90-letter strand. A value is the log2 ratio of uncut reads to the pool without enzyme; strong cutting gives strongly negative numbers. There is no active / inactive call. Because reads are shares of a total, they shift together, so uncut sequences can rise above 0 when many others are cut.

What was measured:
Assay in all cases: uncleaved DNA left, log2 of reads against the no-enzyme library (log2 ratio); higher = less cleavage (more negative = more Rep cleavage of the k-mer); sequences stand for … in CTCGTCCG…ACCGGAGA
[1] = test system: T1, Rep nickase domain of Muscovy duck circovirus
T1 sequence (Rep 1-111, printed without the tag): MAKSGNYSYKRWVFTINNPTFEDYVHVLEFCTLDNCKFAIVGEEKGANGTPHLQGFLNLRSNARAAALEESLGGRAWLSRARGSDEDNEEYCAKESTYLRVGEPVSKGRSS
Description: (§1)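 A pool of 90-nt single-stranded DNAs with seven random bases just before the constant AC of the nick site (name = the seven bases) was cut by 3 µM recombinant His6-SUMO-tagged Rep nickase domain (300 nM DNA, 50 mM HEPES pH 8.0, 50 mM NaCl, 1 mM MnCl2, 1 h, 37 °C, three replicates). Uncut DNA was amplified and sequenced.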

[2] = test system: T2, Rep nickase domain of banana bunchy top virus
T2 sequence (Rep 1-94, printed without the tag): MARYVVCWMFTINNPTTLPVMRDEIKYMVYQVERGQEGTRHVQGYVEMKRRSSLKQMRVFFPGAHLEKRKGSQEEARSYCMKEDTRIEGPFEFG
Description: as §1

[3] = test system: T3, Rep nickase domain of cabbage leaf curl virus
T3 sequence (Rep 1-116, printed without the tag): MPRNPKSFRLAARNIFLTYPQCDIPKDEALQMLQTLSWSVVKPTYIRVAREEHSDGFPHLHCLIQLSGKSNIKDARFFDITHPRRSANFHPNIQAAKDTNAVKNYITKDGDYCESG
Description: as §1

[4] = test system: T4, Rep nickase domain of chickpea chlorotic dwarf virus
T4 sequence (Rep 1-124, printed without the tag): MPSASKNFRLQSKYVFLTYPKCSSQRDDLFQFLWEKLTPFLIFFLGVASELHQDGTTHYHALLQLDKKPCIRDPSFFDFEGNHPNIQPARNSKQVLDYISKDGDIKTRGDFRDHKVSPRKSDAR
Description: as §1

[5] = test system: T5, Rep nickase domain of faba bean necrotic yellows virus
T5 sequence (Rep 1-98, printed without the tag): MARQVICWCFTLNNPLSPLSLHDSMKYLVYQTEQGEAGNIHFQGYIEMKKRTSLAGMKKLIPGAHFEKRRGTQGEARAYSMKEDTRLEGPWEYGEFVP
Description: as §1

[6] = test system: T6, Rep nickase domain of maize striate mosaic virus
T6 sequence (Rep 1-117, printed without the tag): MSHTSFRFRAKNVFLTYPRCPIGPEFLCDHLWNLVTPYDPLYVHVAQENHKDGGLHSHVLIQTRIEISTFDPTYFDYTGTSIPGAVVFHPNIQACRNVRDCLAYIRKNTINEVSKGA
Description: as §1

[7] = test system: T7, Rep nickase domain of porcine circovirus 2
T7 sequence (Rep 2-116, printed without the tag): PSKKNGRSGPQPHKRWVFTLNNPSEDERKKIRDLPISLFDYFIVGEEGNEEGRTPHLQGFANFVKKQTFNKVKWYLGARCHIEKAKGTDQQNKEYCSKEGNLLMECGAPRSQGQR
Description: as §1

[8] = test system: T8, Rep nickase domain of tomato golden mosaic virus
T8 sequence (Rep 1-124, printed without the tag): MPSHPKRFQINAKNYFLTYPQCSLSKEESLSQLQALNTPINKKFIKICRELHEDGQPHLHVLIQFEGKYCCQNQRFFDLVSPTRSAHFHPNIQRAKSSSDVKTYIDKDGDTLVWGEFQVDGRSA
Description: as §1

[9] = test system: T9, Rep nickase domain of tomato yellow leaf curl virus
T9 sequence (Rep 1-136, printed without the tag): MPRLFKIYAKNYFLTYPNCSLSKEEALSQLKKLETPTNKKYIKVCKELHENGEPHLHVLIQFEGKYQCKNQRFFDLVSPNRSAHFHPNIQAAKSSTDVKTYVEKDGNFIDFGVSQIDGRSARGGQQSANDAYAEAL
Description: as §1

[10] = test system: T10, Rep nickase domain of wheat dwarf virus
T10 sequence (Rep 1-137, printed without the tag): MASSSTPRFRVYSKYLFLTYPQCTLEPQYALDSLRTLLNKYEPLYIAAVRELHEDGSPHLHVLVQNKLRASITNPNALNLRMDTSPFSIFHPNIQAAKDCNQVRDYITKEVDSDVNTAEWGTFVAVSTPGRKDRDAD
Description: as §1

| Sequence | uncleaved DNA left (log2) [1] | uncleaved DNA left (log2) [2] | uncleaved DNA left (log2) [3] | uncleaved DNA left (log2) [4] | uncleaved DNA left (log2) [5] | uncleaved DNA left (log2) [6] | uncleaved DNA left (log2) [7] | uncleaved DNA left (log2) [8] | uncleaved DNA left (log2) [9] | uncleaved DNA left (log2) [10] |
| --- | --- | --- | --- | --- | --- | --- | --- | --- | --- | --- |
| ATTTCGA | -0.063 | -0.0555 | -0.608 | -0.685 | 0.0525 | -1.19 | 0.0685 | -0.0385 | -0.0463 | -0.064 |
| TGCTTTC | 0.269 | 0.102 | 0.408 | 0.29 | 0.0686 | 0.291 | 0.157 | -0.0087 | 0.147 | 0.0636 |
| TGTCATA | 0.0947 | 0.0949 | 0.227 | 0.0326 | 0.0172 | 0.657 | -0.0595 | -0.0516 | 0.175 | 0.151 |
| TTACTTT | 0.0476 | -0.0262 | -0.0908 | -2.68 | 0.104 | -0.352 | -0.266 | 0.0625 | 0.136 | -0.0471 |
| ACGGGGT | -0.0261 | -0.177 | 0.191 | 0.562 | -0.106 | 0.772 | 0.175 | 0.0519 | -0.0756 | -0.0525 |
| TCCCAAA | -0.108 | 0.134 | 0.251 | 0.154 | 0.0539 | -0.223 | 0.168 | 0.0511 | 0.209 | 0.172 |
| AATCCAA | 0.0176 | 0.0739 | -0.00207 | -0.349 | -0.0091 | -0.55 | -0.0671 | -0.0647 | 0.0955 | 0.159 |
| TACGCGC | 0.0225 | -0.0105 | -0.757 | -0.345 | 0.126 | -0.698 | -0.0202 | -0.04 | 0.0564 | -0.00652 |
| GGGCATG | 0.0486 | 0.175 | 0.905 | 1.95 | 0.199 | 2.23 | 0.214 | 0.0937 | -0.0928 | 0.156 |
| ATAACTG | 0.0759 | 0.0631 | -0.13 | 0.129 | 0.0387 | 0.961 | 0.228 | 0.149 | 0.0886 | 0.2 |
| CCTTTTG | 0.0465 | 0.0476 | -0.723 | -0.433 | 0.0838 | -1.21 | 0.156 | -0.0951 | -0.0189 | 0.0195 |
| TCCGTTA | 0.176 | 0.0225 | 0.17 | -0.399 | 0.095 | 0.104 | -0.00237 | 0.0276 | 0.0711 | 0.0745 |
| CCAATGG | -0.0178 | -0.0467 | -0.139 | -0.0905 | 0.0256 | -0.76 | 0.0991 | 0.069 | 0.0342 | -0.113 |
| CGCGTGC | 0.111 | -0.0885 | -0.238 | -0.131 | 0.0407 | -0.529 | 0.188 | -0.0274 | -0.00394 | -0.037 |
| AGTATTT | 0.0261 | -0.231 | 0.0661 | -2.24 | -0.272 | 0.122 | -3.24 | 0.0388 | -0.0561 | -0.0459 |
| GCAGTCT | -0.188 | 0.0157 | -0.00882 | -1.29 | -0.197 | -0.251 | -0.0689 | -0.0524 | -0.0466 | -0.174 |
| AGTGCAA | -0.058 | -0.145 | -0.118 | 0.383 | -0.15 | 0.175 | -0.299 | -0.172 | -0.151 | -0.0865 |
| TCCAAGT | 0.127 | 0.00401 | 0.311 | -0.194 | 0.0489 | -0.338 | -0.0618 | 0.0663 | 0.0415 | 0.075 |
| GCGGACA | -0.0163 | 0.267 | 0.937 | 2.1 | 0.0935 | 2.31 | 0.325 | 0.0691 | 0.0527 | 0.201 |
| AGTGTAC | 0.0802 | -0.0306 | 0.0871 | 0.239 | -0.167 | 0.5 | 0.00191 | -0.028 | -0.0162 | -0.0542 |
| TCACACC | -0.0546 | -0.126 | -0.0636 | -0.518 | -0.0702 | -0.613 | -0.311 | 0.0138 | -0.0139 | -0.0797 |
| CCCTTAA | -0.161 | -0.112 | -0.0436 | -0.431 | 0.145 | -0.817 | 0.0448 | 0.0448 | -0.0671 | -0.031 |
| TTCCCTT | -0.105 | -0.0292 | 0.238 | -1.59 | 0.0223 | 0.00377 | -0.64 | -0.112 | 0.12 | -0.0201 |
| GAGCGTT | 0.044 | -0.104 | -0.0146 | -0.138 | -0.0109 | 0.381 | -2.54 | -0.101 | -0.0319 | -0.00367 |
| ATGGTAT | 0.0758 | 0.0874 | 0.27 | 1.44 | -0.0872 | 1.74 | 0.149 | 0.144 | -0.0231 | 0.0936 |
| ATTTCTT | -3.04 | -3.04 | -0.181 | -2.57 | -0.00391 | -0.626 | -3.1 | 0.0541 | 0.0556 | -0.0598 |
| TGTCACA | 0.105 | 0.0292 | 0.296 | -0.221 | 0.00804 | 0.57 | -0.0241 | 0.0149 | 0.0842 | 0.0561 |
| TTGACCT | -0.0927 | 0.0099 | 0.0118 | 0.123 | -0.0226 | 0.635 | -0.0604 | -0.0142 | 0.0822 | 0.0768 |
| AACTCAT | -0.467 | -0.22 | -0.0919 | -1.94 | 0.0715 | -0.27 | -3.53 | 0.0859 | 0.00314 | 0.064 |
| TACCGGA | -0.14 | -0.0733 | 0.0843 | 0.191 | 0.0486 | 0.0537 | -0.0753 | -0.00287 | -0.0707 | -0.0651 |
